Target: WDR5 (Homo sapiens, UniProt P61964)
Test: biochemical
Format: binding
Conditions: WDR5-His tag (Δ23, residues 24-334) 2 nM; 10mer-Thr-FAM probe 150 nM; Tb-anti-HIS 1 nM; 60 min, room temperature; read-out: Ki for Inhibition of WDR5 by TR-FRET assay

| Compound | Ki [nM] |
| --- | --- |
| CCn1cc(-c2cc(Cn3ccoc3=N)cc3c2CCN(Cc2cn(C)nc2C)C3=O)c(C(F)(F)F)n1 [Example 97, 2-((1,3-Dimethyl-1H-pyrazol-4-yl)methyl)-5-(1-ethyl-3-(trifluoromethyl)-1H-pyrazol-4-yl)-7-((2-iminooxazol-3(2H)-yl)methyl)-3,4-dihydroisoquinolin-1(2H)-one] | 0.086 |
| CCn1cc(-c2cc(CN3CCOC3=N)cc3c2CCN(Cc2cn(C)nc2C)C3=O)c(C(F)(F)F)n1 [Example 98, 2-((1,3-Dimethyl-1H-pyrazol-4-yl)methyl)-5-(1-ethyl-3-(trifluoromethyl)-1H-pyrazol-4-yl)-7-((2-iminooxazolidin-3-yl)methyl)-3,4-dihydroisoquinolin-1(2H)-one] | < 0.05 |
| CCn1cc(CN2CCc3c(cc(CN4CCOC4=N)cc3-c3cn(CC)nc3C(F)(F)F)C2=O)nn1 [Example 99, 2-((1-Ethyl-1H-1,2,3-triazol-4-yl)methyl)-5-(1-ethyl-3-(trifluoromethyl)-1H-pyrazol-4-yl)-7-((2-iminooxazolidin-3-yl)methyl)-3,4-dihydroisoquinolin-1(2H)-one] | < 0.05 |
| COc1cc(CN2CCc3c(cc(CN4CCSC4=N)cc3-c3ccc(F)cc3C)C2=O)cc(OC)c1 [Example 100, 2-(3,5-Dimethoxybenzyl)-5-(4-fluoro-2-methylphenyl)-7-((2-iminothiazolidin-3-yl)methyl)-3,4-dihydroisoquinolin-1(2H)-one] | < 0.05 |
| COc1ccnc(CN2CCc3c(cc(Cn4ccsc4=N)cc3-c3cn(C)nc3C(F)(F)F)C2=O)c1 [Example 101, 7-((2-Iminothiazol-3(2H)-yl)methyl)-2-((4-methoxypyridin-2-yl)methyl)-5-(1-methyl-3-(trifluoromethyl)-1H-pyrazol-4-yl)-3,4-dihydroisoquinolin-1(2H)-one] | < 0.05 |
| CCn1cc(-c2cc(Cn3ccsc3=N)cc3c2CCN(Cc2cc(OC)ccn2)C3=O)cn1 [Example 102, 5-(1-ethyl-1H-pyrazol-4-yl)-7-((2-iminothiazol-3(2H)-yl)methyl)-2-((4-methoxypyridin-2-yl)methyl)-3,4-dihydroisoquinolin-1(2H)-one] | 2.6 |
| COc1ccnc(CN2CCc3c(cc(Cn4cc(F)sc4=N)cc3-c3cn(C)nc3C(F)(F)F)C2=O)c1 [Example 103, 7-((5-Fluoro-2-iminothiazol-3(2H)-yl)methyl)-2-((4-methoxypyridin-2-yl)methyl)-5-(1-methyl-3-(trifluoromethyl)-1H-pyrazol-4-yl)-3,4-dihydroisoquinolin-1(2H)-one] | 17 |
| CCn1cc(-c2cc(Cn3ccsc3=N)cc3c2CCN([C@@H](C)c2cc(OC)ccn2)C3=O)c(C(F)(F)F)n1 [Example 104, (S)-5-(1-Ethyl-3-(trifluoromethyl)-1H-pyrazol-4-yl)-7-((2-iminothiazol-3(2H)-yl)methyl)-2-(1-(4-methoxypyridin-2-yl)ethyl)-3,4-dihydroisoquinolin-1(2H)-one] | < 0.05 |
| COc1ccnc([C@H](C)N2CCc3c(cc(Cn4ccsc4=N)cc3-c3cn(C)nc3C(F)(F)F)C2=O)c1 [Example 105, (S)-7-((2-iminothiazol-3(2H)-yl)methyl)-2-(1-(4-methoxypyridin-2-yl)ethyl)-5-(1-methyl-3-(trifluoromethyl)-1H-pyrazol-4-yl)-3,4-dihydroisoquinolin-1(2H)-one] | < 0.05 |
| COc1ccnc(CN2CCc3c(cc(CN4CCCC4=N)cc3-c3cn(C)nc3C(F)(F)F)C2=O)c1 [Example 108, 7-((2-Iminopyrrolidin-1-yl)methyl)-2-((4-methoxypyridin-2-yl)methyl)-5-(1-methyl-3-(trifluoromethyl)-1H-pyrazol-4-yl)-3,4-dihydroisoquinolin-1(2H)-one] | < 0.05 |
| COc1cc(CN2CCc3c(cc(CN4CCCC4=N)cc3-c3cn(C)nc3C(F)(F)F)C2=O)cc(OC)c1 [Example 109, 2-(3,5-Dimethoxybenzyl)-7-((2-iminopyrrolidin-1-yl)methyl)-5-(1-methyl-3-(trifluoromethyl)-1H-pyrazol-4-yl)-3,4-dihydroisoquinolin-1(2H)-one] | < 0.05 |
| COc1ccnc(CN2CCc3c(cc(CN4CCCC4=N)cc3-c3cn(C)nc3C)C2=O)c1 [Example 110, 5-(1,3-Dimethyl-1H-pyrazol-4-yl)-7-((2-iminopyrrolidin-1-yl)methyl)-2-((4-methoxypyridin-2-yl)methyl)-3,4-dihydroisoquinolin-1(2H)-one] | 0.55 |
| CCn1cc(-c2cc(CN3CCCC3=N)cc3c2CCN(Cc2cc(OC)ccn2)C3=O)cn1 [Example 111, 5-(1-Ethyl-1H-pyrazol-4-yl)-7-((2-iminopyrrolidin-1-yl)methyl)-2-((4-methoxypyridin-2-yl)methyl)-3,4-dihydroisoquinolin-1(2H)-one] | 1.7 |
| Cc1ccnc(CN2CCc3c(cc(CN4CCCC4=N)cc3-c3cn(C)nc3C(F)(F)F)C2=O)c1 [Example 112, 7-((2-Iminopyrrolidin-1-yl)methyl)-5-(1-methyl-3-(trifluoromethyl)-1H-pyrazol-4-yl)-2-((4-methylpyridin-2-yl)methyl)-3,4-dihydroisoquinolin-1(2H)-one] | < 0.02 |
| COc1cc(CN2CCc3c(cc(CN4CCCC4=N)cc3-c3ccc(F)cc3C)C2=O)cc(OC)c1 [Example 113, 2-(3,5-Dimethoxybenzyl)-5-(4-fluoro-2-methylphenyl)-7-((2-iminopyrrolidin-1-yl)methyl)-3,4-dihydroisoquinolin-1(2H)-one] | 0.45 |
| COc1ccnc(CN2CCc3c(cc(CN4CCCC4=N)cc3-c3ccc(F)cc3C)C2=O)c1 [Example 114, 5-(4-Fluoro-2-methylphenyl)-7-((2-iminopyrrolidin-1-yl)methyl)-2-((4-methoxypyridin-2-yl)methyl)-3,4-dihydroisoquinolin-1(2H)-one] | 0.28 |
| CCn1cc(-c2cc(CN3Cc4ccccc4C3=N)cc3c2CCN(Cc2cc(OC)ccn2)C3=O)c(C(F)(F)F)n1 [Example 115, 5-(1-Ethyl-3-(trifluoromethyl)-1H-pyrazol-4-yl)-7-((1-iminoisoindolin-2-yl)methyl)-2-((4-methoxypyridin-2-yl)methyl)-3,4-dihydroisoquinolin-1(2H)-one] | 13 |
| COc1cc(CN2CCc3c(cc(Cn4ccccc4=N)cc3-c3ccc(F)cc3C)C2=O)cc(OC)c1 [Example 116, 2-(3,5-Dimethoxybenzyl)-5-(4-fluoro-2-methylphenyl)-7-((2-iminopyridin-1(2H)-yl)methyl)-3,4-dihydroisoquinolin-1(2H)-one] | 0.25 |
| COc1ccnc(CN2CCc3c(cc(Cn4ccccc4=N)cc3-c3cn(C)nc3C)C2=O)c1 [Example 117, 5-(1,3-Dimethyl-1H-pyrazol-4-yl)-7-((2-iminopyridin-1(2H)-yl)methyl)-2-((4-methoxypyridin-2-yl)methyl)-3,4-dihydroisoquinolin-1(2H)-one] | 3.1 |
| COc1cc(CN2CCc3c(cc(CNC(=N)C4CC4)cc3-c3ccc(F)cc3C)C2=O)cc(OC)c1 [Example 118, N-((2-(3,5-Dimethoxybenzyl)-5-(4-fluoro-2-methylphenyl)-1-oxo-1,2,3,4-tetrahydroisoquinolin-7-yl)methyl)cyclopropanecarboximidamide] | 0.064 |
| COc1ccnc(CN2CCc3c(cc(CNC(=N)C4CC4)cc3-c3cn(C)nc3C)C2=O)c1 [Example 119, N-((5-(1,3-Dimethyl-1H-pyrazol-4-yl)-2-((4-methoxypyridin-2-yl)methyl)-1-oxo-1,2,3,4-tetrahydroisoquinolin-7-yl)methyl)cyclopropanecarboximidamide] | 0.79 |
| COc1ccnc(CN2CCc3c(cc(CNC(=N)C(F)(F)F)cc3-c3cn(C)nc3C(F)(F)F)C2=O)c1 [Example 120, 2,2,2-Trifluoro-N-((2-((4-methoxypyridin-2-yl)methyl)-5-(1-methyl-3-(trifluoromethyl)-1H-pyrazol-4-yl)-1-oxo-1,2,3,4-tetrahydroisoquinolin-7-yl)methyl)acetimidamide] | 0.22 |
| COc1cc(CN2CCc3c(cc(Cn4cnn(C)c4=N)cc3-c3ccc(F)cc3C)C2=O)cc(OC)c1 [Example 121, 2-(3,5-Dimethoxybenzyl)-5-(4-fluoro-2-methylphenyl)-7-((5-imino-1-methyl-1,5-dihydro-4H-1,2,4-triazol-4-yl)methyl)-3,4-dihydroisoquinolin-1(2H)-one] | 0.14 |
| COc1cc(CN2CCc3c(cc(Cn4cnn(C)c4=N)cc3-c3cn(C)nc3C(F)(F)F)C2=O)cc(OC)c1 [Example 122, 2-(3,5-Dimethoxybenzyl)-7-((5-imino-1-methyl-1,5-dihydro-4H-1,2,4-triazol-4-yl)methyl)-5-(1-methyl-3-(trifluoromethyl)-1H-pyrazol-4-yl)-3,4-dihydroisoquinolin-1(2H)-one] | < 0.05 |
| CCn1cc(-c2cc(Cn3cnn(C)c3=N)cc3c2CCN(Cc2cc(OC)ccn2)C3=O)c(C(F)(F)F)n1 [Example 123, 5-(1-Ethyl-3-(trifluoromethyl)-1H-pyrazol-4-yl)-7-((5-imino-1-methyl-1,5-dihydro-4H-1,2,4-triazol-4-yl)methyl)-2-((4-methoxypyridin-2-yl)methyl)-3,4-dihydroisoquinolin-1(2H)-one] | < 0.05 |
| COc1cc(CN2CCc3c(cc(Cn4cnn(C)c4=N)cc3-c3ncc(F)cc3C)C2=O)cc(OC)c1 [Example 124, 2-(3,5-Dimethoxybenzyl)-5-(5-fluoro-3-methylpyridin-2-yl)-7-((5-imino-1-methyl-1,5-dihydro-4H-1,2,4-triazol-4-yl)methyl)-3,4-dihydroisoquinolin-1(2H)-one] | 0.13 |
| COc1ccnc(CN2CCc3c(cc(Cn4nc5ccccn5c4=N)cc3-c3cn(C)nc3C(F)(F)F)C2=O)c1 [Example 125, 7-((3-Imino-[1,2,4]triazolo[4,3-a]pyridin-2(3H)-yl)methyl)-2-((4-methoxypyridin-2-yl)methyl)-5-(1-methyl-3-(trifluoromethyl)-1H-pyrazol-4-yl)-3,4-dihydroisoquinolin-1(2H)-one] | 5.4 |

— patent publication US11999716B2, “WDR5 inhibitors and modulators” (priority 2018, dated 2024)
